Measured values as given in the supplement of paper PMC4166925.
± gives the standard deviation of the averaged measurements. Whole data set: some 33,000 sequences, median “E-score (dimensionless, -0.5 to 0.5)” near -0.049, cut for the highest 2% near 0.37. The list shows a part of the results.

Each sequence was assayed on T1, PmTbr T-box DNA-binding domain (GST fusion) (assay: PBM E-score of 8-mer (E-score (dimensionless, -0.5 to 0.5)); Tbr is Tbrain of the sea star Patiria miniata (Pm) or the sea urchin Strongylocentrotus purpuratus (Sp); higher = stronger binding preference; most listed sequences are background and not binding sites). Settings: the construct has about 5 more residues each side.
T1 sequence: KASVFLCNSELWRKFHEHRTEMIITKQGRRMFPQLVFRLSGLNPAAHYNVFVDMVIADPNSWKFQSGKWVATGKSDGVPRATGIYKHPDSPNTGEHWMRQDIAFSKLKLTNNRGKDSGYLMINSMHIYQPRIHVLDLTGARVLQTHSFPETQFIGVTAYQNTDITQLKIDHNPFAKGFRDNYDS
Method: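 Universal protein-binding microarray (Agilent AMADID 016060, 60-bp probes with a 35-bp variable region) incubated with 200 nM GST-fused Patiria miniata Tbr T-box DNA-binding domain (residues 272-466) in PBS pH 7.5. Scored for every ungapped 8-mer (given with its reverse complement) by the Universal PBM Analysis Suite as E-score (modified Wilcoxon-Mann-Whitney enrichment, range -0.5 to 0.5; >0.45 counts as bound) and Z-score of median probe intensity. Two replicate arrays (datasets 1 and 2).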
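Also: 200 nM protein in PBS on universal arrays averaged over duplicate arrays.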

Point of comparison: TATGGACA, “PBM E-score of 8-mer” value -0.12 ± 0.033. Against it:
- AGGACGAT — lower, -0.333 ± 0.015
- GGACGGTA — lower, -0.228 ± 0.055
- CGCGCATA — higher, 0.187 ± 0.044
- AGGAACCG — within error, -0.123 ± 0.0091
- CACGCGAC — higher, 0.285 ± 0.03
- ATCGGAAT — higher, -0.0548 ± 0.0019
- GCCTGTCA — higher, 0.184 ± 0.022
- CCTCTGGA — within error, -0.0408 ± 0.055
- ACATAAGG — within error, -0.166 ± 0.045
- AACTGACG — higher, 0.102 ± 0.036
- CCGTTCGC — higher, 0.323 ± 0.023
- ACACCCTA — higher, 0.383 ± 0.018
- AAGCAACC — higher, 0.0368 ± 0.044
- AGTTGAAG — lower, -0.1993 ± 0.00098
- CCGCAGCC — within error, -0.128 ± 0.032
- CACATAAC — higher, 0.24 ± 0.019
- GGTTACTA — lower, -0.224 ± 0.027
- AACACATC — higher, 0.378 ± 0.013
- AGAGCGCT — within error, -0.173 ± 0.074
- ATCCGACG — higher, -0.0662 ± 0.0097
- CCTTTAAA — within error, -0.112 ± 0.057
- GCGACGAA — higher, 0.302 ± 0.0043
- ACGTAAAA — within error, -0.181 ± 0.054
- AAGCAATG — higher, -0.0127 ± 0.029
- TAAGGCTA — within error, -0.13 ± 0.046
- AAGAGATT — within error, -0.162 ± 0.015
- ACCTTACA — higher, 0.241 ± 0.053
- CCGCACGC — higher, 0.157 ± 0.024
- CCCTTGTC — within error, -0.145 ± 0.077
- GGAGATAA — higher, 0.0713 ± 0.019
- ATAGTGCC — within error, -0.0965 ± 0.1
- ACATTGCT — higher, 0.0753 ± 0.037
- CGGTCCTA — lower, -0.1721 ± 0.0013
- TGGGGAAA — higher, 0.00636 ± 0.087
- CTTGTTGA — higher, 0.151 ± 0.013
- AATTCTAA — within error, -0.128 ± 0.086
- AAACATCG — higher, -0.0448 ± 0.038
- CAGCATAA — lower, -0.246 ± 0.0042
- CATAAAAA — within error, -0.0836 ± 0.037
- CCTAAATC — higher, 0.0496 ± 0.0025
- GGATTCAA — lower, -0.275 ± 0.062
- GACGAGGC — higher, 0.0586 ± 0.12
- TAGCCACA — higher, 0.11 ± 0.01
- TCTTCCAA — within error, -0.144 ± 0.043
- AACACCTT — higher, 0.4857 ± 0.0013
- AGTAGACT — within error, -0.153 ± 0.062
- GACGTTCC — within error, -0.193 ± 0.065
- GAATACTA — within error, -0.143 ± 0.043
- ATAGGTTA — lower, -0.261 ± 0.022
- AATCCGTG — higher, 0.0745 ± 0.015
- CAGGAGAA — lower, -0.192 ± 0.011
- CGTGCGGA — higher, 0.0633 ± 0.03
- CTAGGTTC — within error, -0.0841 ± 0.0095
- GGTACACA — within error, -0.0988 ± 0.052
- CACAGATG — higher, 0.0602 ± 0.03
- ACACCGCG — higher, 0.337 ± 0.01
- CCTGTGAG — higher, 0.227 ± 0.0028
- GAACCGGC — the same, -0.12 ± 0.021
- CCTTATCA — higher, 0.146 ± 0.036
- ACATTCTC — higher, 0.171 ± 0.18
- ACCCAGAC — higher, 0.0568 ± 0.091
- GCCCATCC — within error, -0.066 ± 0.11
- AATCGGCT — within error, -0.0721 ± 0.049
- CAAAGTTC — within error, -0.123 ± 0.025
- CTTATTAA — within error, -0.213 ± 0.074
- CAGGGCAG — within error, -0.088 ± 0.018
- AGTATTCG — higher, 0.00711 ± 0.043
- CATTGTGC — within error, -0.11 ± 0.028
- CGGCGGCC — lower, -0.252 ± 0.023
- TACTAACA — higher, 0.196 ± 0.066
- CAGGAATC — within error, -0.194 ± 0.1
- TATAATGA — within error, -0.109 ± 0.01
- CGTATCCC — within error, -0.144 ± 0.051
- AGAACCAG — lower, -0.295 ± 0.055
- ATTAAGTG — higher, 0.116 ± 0.049
- GGTTCAAA — lower, -0.356 ± 0.034
- CGCACCAG — higher, 0.2978 ± 0.0014
- GCGCCACC — higher, 0.34 ± 0.012
- GCGCGGGA — higher, 0.0785 ± 0.072
- ATTTCATC — within error, -0.0838 ± 0.045
- GCGTTACA — higher, 0.19 ± 0.045
- GCAGCAGA — higher, -0.064 ± 0.012
- ATCTGTGG — lower, -0.197 ± 0.037
- AGTACTTC — lower, -0.25 ± 0.024
- GCCCTGTA — lower, -0.204 ± 0.025
- GTTTTCTA — lower, -0.204 ± 0.0059
- ATAATCCG — within error, -0.0983 ± 0.017
- GCAAAAAA — higher, 0.0494 ± 0.066
- ATTCCGGA — within error, -0.201 ± 0.06
- GAAAAAGA — within error, -0.163 ± 0.074
- CCTTGGCC — lower, -0.216 ± 0.043
- CAACGCTC — higher, -0.0448 ± 0.0033
- CAGAGGAG — within error, -0.0488 ± 0.058
- GCGTTTCC — higher, -0.0624 ± 0.0029
- AGTCGTAG — within error, -0.0951 ± 0.072
- GCATATTA — higher, -0.0131 ± 0.037
- AGCGTGAT — higher, 0.207 ± 0.025
- GTACGTCA — higher, 0.0376 ± 0.023
- CTACCTTA — within error, -0.0827 ± 0.042
- TACAGGAA — within error, -0.0757 ± 0.06
- GAGTTCTA — within error, -0.132 ± 0.015
- ATGATTCG — higher, 0.0158 ± 0.035
- CCTTTCAC — higher, 0.3129 ± 0.00054
- ATTGGCCG — within error, 0.00906 ± 0.098
- CAGACGCC — higher, 0.0844 ± 0.053
- ATTTGCAG — higher, 0.0369 ± 0.028
- GCGTTCCA — within error, -0.201 ± 0.092
- AGGCGAAG — within error, -0.0705 ± 0.037
- CCGCCCAA — within error, -0.101 ± 0.091
- GGCACAAC — higher, 0.126 ± 0.015
- CAAAGGTA — within error, -0.133 ± 0.035
- TGTTCCAA — within error, -0.0604 ± 0.099
- CCTCACAC — higher, 0.475 ± 0.005
- ACTACTGC — higher, 0.00279 ± 0.034
- GTTCCTAA — lower, -0.187 ± 0.014
- GCATGAGA — within error, -0.112 ± 0.041
- ACATTGAC — higher, 0.166 ± 0.075
- CCAACTCA — within error, -0.154 ± 0.12
- CGAGCTCC — lower, -0.186 ± 0.011
- AGGGGTGA — higher, 0.25 ± 0.018
- CAAACGGG — within error, -0.107 ± 0.017
- CTCGCTGA — higher, 0.0791 ± 0.063
- GAACCGTA — within error, -0.134 ± 0.053
- CCGCAGCG — higher, 0.0935 ± 0.039
- GCGTAAAC — higher, 0.0544 ± 0.011
- ACTTTGGC — higher, 0.139 ± 0.01
- ACTATCGA — higher, -0.0125 ± 0.02
- ATAAAACG — within error, -0.0364 ± 0.081
- GATATGGA — lower, -0.283 ± 0.013
- AGGTTCGG — within error, -0.0825 ± 0.035
- ATACATTA — lower, -0.3 ± 0.0049
- AGGCGACA — higher, 0.3974 ± 0.0038
- ATCCGTGG — lower, -0.2691 ± 0.0023
- AATCCGAA — within error, -0.213 ± 0.06
- GCATTTCA — higher, 0.00163 ± 0.038
- CAGGGAAA — within error, -0.153 ± 0.074
- AAGCTGGC — higher, 0.166 ± 0.015
- AGACCGGC — within error, -0.0622 ± 0.026
- AATGTCCC — lower, -0.366 ± 0.026
- GTACCCAA — lower, -0.192 ± 0.013
- CACATCTA — higher, 0.229 ± 0.0027
- CAGAACCC — lower, -0.214 ± 0.0027
- CTGCCCTC — within error, -0.067 ± 0.048
- GACTAGTC — within error, -0.132 ± 0.06
- AGTATACC — within error, -0.145 ± 0.046
- GCGACCAC — higher, 0.0576 ± 0.051
- AGAACCGA — higher, 0.0116 ± 0.0067
- CAGGTGCG — higher, 0.4533 ± 0.0028
- AGTCGTGC — higher, 0.032 ± 0.0093
- AGGTCCCC — lower, -0.314 ± 0.016
- ATGTTAGC — higher, 0.0827 ± 0.022
- AGTTGCAC — higher, 0.177 ± 0.0048
- ACTCAATC — higher, 0.0926 ± 0.026
- TAGTTAGA — within error, -0.127 ± 0.061
- ACGTTCGC — higher, 0.191 ± 0.011
- CCATGAAC — within error, -0.112 ± 0.039
- AGAACGGC — within error, -0.0714 ± 0.038
- ACTGGCTC — within error, -0.123 ± 0.0062
- AATCAACG — within error, -0.118 ± 0.01
- CAAAAATA — within error, -0.149 ± 0.035
- GGTTGTAC — higher, 0.11 ± 0.012
- ATGAACGC — within error, -0.0876 ± 0.052
- GTCGAAAC — higher, 0.0209 ± 0.011
- GCCACGCC — higher, 0.12 ± 0.026
- ATAGCGTC — higher, 0.0818 ± 0.011
- CTACAGGC — within error, -0.125 ± 0.0056
- CACTTCGA — higher, 0.226 ± 0.011
- ACATGTTG — higher, 0.185 ± 0.021
- CCAAATCC — higher, 0.0777 ± 0.038
- GCGAGGGA — higher, 0.181 ± 0.043
- ACATTTCC — higher, -0.00451 ± 0.021
